# From the RNAGym collection of RNA variant scans (doi:10.1093/nar/gkz1192)
# Read counts are not given, so values of variants with three or more changes are uncertain.
# B1: CPEB3 Ribozyme (parent)
# chain: UAACAGGGGGCCACAGCAGAAGCGUUCACGUCGCAGCCCCUGUCAGAUUCUGGUGAAUCUGCGAAUUCUGCUGUAUAUCUC
# Variants of: B1
# Assay: self-cleavage, relative activity (ratio to wild type); higher = more cleavage; in vitro, sequencing
# How it was run: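 CPEB3 self-cleaving ribozyme mutant libraries were made by rounds of error-prone PCR, barcoded, and transcribed in vitro with T7 RNA polymerase for 5 hours at 37°C. Cleavage occurred during transcription and a 15 min DNase I step before EDTA stop. RNAs were reverse transcribed with template switching and Illumina-sequenced, with DNA sequencing mapping barcodes to variants. Relative activity is the variant's cleaved/total read fraction divided by wild type's (minimum 5 reads), averaged across three batches.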
row,Variant,self-cleavage
1,A28G A45U U67C,0.12
2,U26C C37U A57U G63U C71A,0.06
3,U26C A45U C79A,0.26
4,A28G G52C U54A A56G,0.44
5,U26C A57G U58C A65U U69C,0.07
6,A28G G42A U43G,0.26
7,U26C A77G U78C,0.38
8,U26C G36A U41A,0.17
9,U26C U51A U54C U76A,0.42
10,U26G U41C U72A,0.37
11,U26C U60A U69A,0.12
12,U26C A56G U67C U72C,0.1
13,A28G A64U U72A,0.17
14,U26C A47G U76C,0.49
15,U26C U66C U72A,0.09
16,A28G U31C C38A U43C U49C U60C U80C,0.06
17,U26C A35G U60C,0.31
18,A28G A47G A64G A77U,0.52
19,U26C G30A U76C,0.1
20,C27U A64G U72A,0.14
21,U26C G30C U41C,0.19
22,U26C U48C A64U,0.2
23,A28G A47C U51A,0.2
24,C27G A56G A57G,0.17

row,Variant,self-cleavage
1,A28G G30C A45U U58A U80A,0.37
2,U26G A56G U80A,0.08
3,C27U U48A A65G U69A U78C,0.06
4,U26C C40A U41C,0.06
5,U26C G30A U43C U74A,0.18
6,A28G G33A U66C C71A,0.11
7,U26C U41A A47G A57U,0.06
8,A28G C39A U80C,0.29
9,U26C U67A U80A,0.13
10,U26C U67A C79G,0.16
11,A28G A47G A57G,0.39
12,A28G A35G A45U,0.55
13,A28C U41C U54C A64G U66C,0.23
14,A28G A35C U67C,0.53
15,A28G A65G U76A,0.24
16,U26C U41C U60A A64G A75G,0.08
17,U26C U31C G61A,0.26
18,U26C G36A A45G U80C C81G,0.15
19,A28G U31C U67C,0.09
20,U26G C40U A57G U58C,0.11
21,U26C C38A A64U U69A U78C,0.04
22,U26C U41A G46A,0.09
23,U26C U41A G46U,0.16
24,C27U A35U U41A U60C U69A U72C U80C,0.06

row,Variant,self-cleavage
1,A28G U31A U43A U74A U76C,0.79
2,U26C U60C U66C U69C,0.1
3,C27U U41C U43A,0.2
4,C27U A45U G70U,0.07
5,U26C U41A U49A U60C U72C U74A U78C,0.06
6,A28C A35U U76C,0.47
7,A28C A45G A77U,0.34
8,A28G G36A A64G U76A U78A,0.14
9,A28G A35U A45G,0.13
10,A28G G42U U66G,0.11
11,U26C C32A A45G U72C,0.49
12,A28G A35G C40U U58C,0.72
13,A28G G36U U48C A77G,0.05
14,U26C A45U G63U,0.41
15,A28G A45G A65G,0.18
16,U26C U43A G70A U72C,0.24
17,U26C A77G U80G,0.5
18,U26C A35U U43C A45G,0.2
19,U26C A45G U74C C81A,0.34
20,C27U U31C U66A U69A U74A,0.05
21,A28G A35C C38U A47G U60C,0.05
22,U26G A45C A64G,0.09
23,A28G C62U U80C,0.29
24,U26C U31C U66C,0.21

row,Variant,self-cleavage
1,C27U G33U C37A U48C,0.08
2,A28G A45U U74A,0.57
3,A28G A45G U54C U78A,0.42
4,A28C U41G G42A U49C U51A G63C U66C,0.04
5,A28C U72C U76C,0.67
6,U26C U60C U74C,0.39
7,U26C C27G G36A A45G A75G U78C,0.02
8,U26C U41A A64G,0.09
9,U26C C29A A35U A56G A77G,0.04
10,U26G A47U U74C C81U,0.29
11,A28G C34U U41A,0.3
12,U26C G73A U80A,1.11
13,A28G G55A U67C U72C U80C,0.16
14,A28G U31C A35G C39U U48C U80C,0.25
15,A28G C32U U54A A56U,0.46
16,A28G C39A U43A U66C,0.13
17,U26C A45U G46A,0.13
18,U26C C40U A45U A47G A65G,0.26
19,C27A A35G A47G,0.14
20,U26C A47C C50A U69A,0.41
21,C27G C39A A45G,0.25
22,U26C A56U A77G U78C,0.21
23,A28G C44U A47G U60A C71G U78C,0.08
24,A28C U41G G70A,0.09

row,Variant,self-cleavage
1,A28G G30A U67C,0.16
2,A28G U31C U58A,0.38
3,A28G A35G U51A U67A,0.74
4,U26C A47U U49C U72C U74A,0.09
5,U26C U58G U60G,0.19
6,A28G A35G C37G U76C,0.14
7,A28G C39A U41C A57G U67C,0.1
8,A28G A35G U49C,0.42
9,A28G A35G U49A,1.05
10,U26C A45U A57G U69A,0.08
11,U26C C44U A56G U69G,0.19
12,A28G A35G U41C U48C U60A U67C C71A,0.17
13,U26C U54C U60C,0.12
14,U26C C40G A64U U66A U69A U76A,0.08
15,A28G C40U U67C,0.34
16,U26C U48A U51G A56G C79U,0.18
17,A28C A35U A56G,0.51
18,A28G C71U U80A,0.26
19,U26C G33C A45U A56G,0.04
20,U26C G52U A57U G63A A65G U67C,0.12
21,U26C C32A C39U U49C A64G U80C,0.2
22,U26C U66C U76C,0.09
23,A28G A35U U51C U60A U66C,0.09
24,U26C U51C U54C U80A,0.3

row,Variant,self-cleavage
1,U26C G46U A64U,0.14
2,A28G U31C U43C U51C,0.19
3,A28G A35C U49C,0.06
4,A28G A47G U78C,0.3
5,U26C G33C A35U U69C U72A,0.07
6,C27G U58C U69A A75U,0.12
7,U26C G36A U60A,0.16
8,A28G A47G U72C U80A,0.92
9,A28G A56G A64C U78C,0.11
10,A28G G63U U67C,0.19
11,A28G C38U A56U U74C,0.14
12,A28G G73A U80C,1.12
13,A28G U31C A45G U51A A77C,0.15
14,U26C C37U U60C,0.12
15,C27A C40U U66C,0.09
16,A28G G53A G63A,0.62
17,A28G C39A A56G U60C U67A U78A,0.03
18,C27A C32G A57G U67A U72C,0.12
19,A28C A45U A57G,0.4
20,U26C C29U U43C A56U U67C,0.13
21,U26C C29U U31C U49C,0.1
22,U26C U41A A57G U58C,0.16
23,C27U A47G A57G,0.12
24,U26C U41A U78C,0.12

row,Variant,self-cleavage
1,A28C U66C U69A U72A,0.12
2,A28G A35G U80C,1.18
3,A28G A35G U80A,1.24
4,U26C C29A U80C,0.46
5,A28G G52A U72A,0.71
6,A28C U60C U74C,0.5
7,A28G A35U U48C A57G,0.2
8,A28G U31A U41A U72C,0.09
9,C27A C32A U69A,0.14
10,U26C U54C A65G,0.13
11,U26C C44G C59A U69A,0.18
12,C27U U72A C81A,0.3
13,C27U A45G U66A,0.07
14,U26C U31C U51C U69G,0.35
15,U26C U54C A56U U72A,0.22
16,U26C A65G C81A,0.09
17,U26C U41C U66G U69C,0.2
18,U26G G33A A64U,0.25
19,U26C A56G C79U,0.87
20,A28C C39A U51C A65G,0.09
21,C27U A35U U67C A77U,0.09
22,U26C C37G A47G U49C G63A,0.07
23,U26C A47G G55A U72C,0.44
